Source: PubChem BioAssay AID504333 (National Center for Advancing Translational Sciences (NCATS), 2011)
Screen size: about 360,000 compounds; about 16,000 (4.4%) were called active. The shares of active, inactive and inconclusive entries below differ from those in the screen. Calls come from the whole dose curve; as a rule, active = well fitted inhibition curve with a large enough effect; inconclusive = small, poorly fitted or top-dose-only effect; inactive = no such curve, though single readings can be large or run the other way. A potency beside an inconclusive call is a rough fit, not a confirmed value.

biological target: Bromodomain adjacent to zinc finger domain protein 2B (Homo sapiens) (UniProt Q9UIF8); assay: qHTS Assay for Inhibitors of BAZ2B; conditions: AlphaScreen BAZ2B-H3K14Ac peptide displacement; activity change, negative = inhibition: at 114 µM (top of the series); note: nearly all actives have a fitted effect of over 60% in size
Summary of the method: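 AlphaScreen displacement: compounds (up to 110uM) incubated 30 min at room temperature with a preformed 50 nM BAZ2B/50 nM biotinylated H3K14Ac peptide complex in PBS pH 7.4 with Tween-20. Donor and acceptor beads at 10 ug/mL final added, 20 min light-protected before reading.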
% is set by controls: 0 for no effect and ±100 for the full control effect; potency is the fitted concentration of half-maximal effect; tags give direction and shape of the fitted curve.

Sequence of UniProt Q9UIF8 (Q9UIF8 whole entry, looked up, the tested form may be a part): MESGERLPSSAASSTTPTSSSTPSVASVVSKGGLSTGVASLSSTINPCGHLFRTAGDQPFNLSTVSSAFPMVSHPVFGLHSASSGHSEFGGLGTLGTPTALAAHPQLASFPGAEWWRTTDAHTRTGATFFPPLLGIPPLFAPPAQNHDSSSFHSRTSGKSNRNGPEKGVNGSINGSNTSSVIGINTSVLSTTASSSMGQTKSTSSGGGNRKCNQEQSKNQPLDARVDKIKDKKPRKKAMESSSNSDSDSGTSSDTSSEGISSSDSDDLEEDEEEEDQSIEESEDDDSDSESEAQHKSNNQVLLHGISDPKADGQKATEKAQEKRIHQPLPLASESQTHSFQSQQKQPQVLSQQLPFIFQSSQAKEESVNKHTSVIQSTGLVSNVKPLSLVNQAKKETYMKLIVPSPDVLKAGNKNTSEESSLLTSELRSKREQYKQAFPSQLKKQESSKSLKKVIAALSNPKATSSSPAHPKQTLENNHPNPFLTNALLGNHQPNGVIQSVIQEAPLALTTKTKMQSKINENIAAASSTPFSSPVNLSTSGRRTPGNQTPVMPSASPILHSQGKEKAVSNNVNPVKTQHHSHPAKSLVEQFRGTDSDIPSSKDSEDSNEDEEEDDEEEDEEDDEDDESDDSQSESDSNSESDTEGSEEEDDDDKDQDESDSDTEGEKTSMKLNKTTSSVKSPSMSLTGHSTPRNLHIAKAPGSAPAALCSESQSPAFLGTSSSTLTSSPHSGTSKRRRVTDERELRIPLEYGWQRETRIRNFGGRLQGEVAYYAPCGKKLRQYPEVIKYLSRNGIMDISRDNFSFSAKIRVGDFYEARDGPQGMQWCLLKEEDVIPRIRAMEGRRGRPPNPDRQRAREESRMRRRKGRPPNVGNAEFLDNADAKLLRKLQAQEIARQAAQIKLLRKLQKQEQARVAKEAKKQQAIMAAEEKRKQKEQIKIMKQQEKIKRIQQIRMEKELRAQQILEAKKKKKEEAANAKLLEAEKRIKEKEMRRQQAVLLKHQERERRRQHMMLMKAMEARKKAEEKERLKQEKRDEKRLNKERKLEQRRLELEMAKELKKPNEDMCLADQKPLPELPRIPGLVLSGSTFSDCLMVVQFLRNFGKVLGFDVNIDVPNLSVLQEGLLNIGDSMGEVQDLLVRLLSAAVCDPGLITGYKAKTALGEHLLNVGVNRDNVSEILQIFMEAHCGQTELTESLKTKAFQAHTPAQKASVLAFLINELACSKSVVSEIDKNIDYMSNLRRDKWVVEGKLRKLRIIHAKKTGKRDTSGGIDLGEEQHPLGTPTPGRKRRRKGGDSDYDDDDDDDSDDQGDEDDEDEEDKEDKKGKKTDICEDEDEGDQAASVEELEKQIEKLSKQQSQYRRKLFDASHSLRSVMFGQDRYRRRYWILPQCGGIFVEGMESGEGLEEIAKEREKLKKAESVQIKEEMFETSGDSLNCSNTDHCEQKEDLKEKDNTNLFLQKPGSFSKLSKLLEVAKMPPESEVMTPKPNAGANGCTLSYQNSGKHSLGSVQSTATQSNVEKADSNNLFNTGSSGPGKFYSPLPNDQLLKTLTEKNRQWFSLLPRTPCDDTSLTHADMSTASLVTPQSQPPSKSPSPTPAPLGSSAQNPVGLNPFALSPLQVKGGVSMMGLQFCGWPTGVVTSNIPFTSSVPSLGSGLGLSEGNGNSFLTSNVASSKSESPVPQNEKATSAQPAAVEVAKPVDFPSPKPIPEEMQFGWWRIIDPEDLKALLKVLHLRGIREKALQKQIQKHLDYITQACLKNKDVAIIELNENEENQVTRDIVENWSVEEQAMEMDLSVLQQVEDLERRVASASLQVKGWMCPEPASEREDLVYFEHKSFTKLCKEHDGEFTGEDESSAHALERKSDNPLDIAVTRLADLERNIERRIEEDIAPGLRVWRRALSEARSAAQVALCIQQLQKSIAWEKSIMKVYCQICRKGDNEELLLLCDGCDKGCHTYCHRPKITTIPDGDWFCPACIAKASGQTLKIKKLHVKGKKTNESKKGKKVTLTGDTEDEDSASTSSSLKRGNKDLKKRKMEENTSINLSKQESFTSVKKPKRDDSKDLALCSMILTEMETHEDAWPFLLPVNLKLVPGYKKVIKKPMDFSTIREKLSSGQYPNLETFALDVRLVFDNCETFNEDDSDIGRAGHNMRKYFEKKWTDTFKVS

SMILES | activity change, negative = inhibition | Potency
COc1ccc(C(=O)c2cn(CC(=O)Nc3cc(OC)cc(OC)c3)c3ccc(OC)cc3c2=O)cc1 | inactive: 2.09% | 
Nc1nc(CN2CCN(C(=O)c3ccco3)CC2)nc(Nc2cccc(Cl)c2)n1 |  | inconclusive: 50.1 µM [inhibitor, partial curve]
CCOc1ccc(NS(=O)(=O)c2ccc3c(c2)NC(=O)CCS3)cc1 | inactive: -1.29% | 
CC1(C)Oc2ccc3ccc(=O)oc3c2/C(=C/NNC(N)=S)C1=O |  | active: 50.1 µM
Cc1nc(NC(=O)c2cc3ccccc3o2)sc1C |  | active: 56.2 µM
COc1ccc(CCNC(=O)c2ccc(-n3c(C)cc4c3CCC(C)C4)cc2)cc1OC (stereo not given) | inactive: -20.9% | 
O=C(/C=C/c1cccc([N+](=O)[O-])c1)NCCSCc1ccco1 |  | inconclusive: 89.1 µM [inhibitor, single point]
CC(C)CSc1n[nH]c(=S)s1 |  | active: 50.1 µM
Cc1cc(C)c(OCC(=O)N(Cc2ccc(N(C)C)cc2)Cc2ccco2)c(C)c1 |  | active: 8.91 µM
O=C(O)C1CCN(c2ccc([N+](=O)[O-])cc2[N+](=O)[O-])CC1 |  | active: 56.2 µM
O=c1cc(CSc2nnnn2-c2ccccc2)[nH]c2[nH]n(-c3ccccc3)c(=O)c12 |  | inconclusive: 79.4 µM [inhibitor, single point]
N#Cc1ccsc1NC(=O)c1ccccn1 |  | active: 10 µM
CN1CCN(S(=O)(=O)c2cccc(C(=O)Oc3cccc(Br)c3)c2)CC1 |  | inconclusive: 89.1 µM [inhibitor, single point]
Cc1cc(C(C)(C)C)oc1C(=O)O |  | inconclusive: 89.1 µM [inhibitor, single point]
CN(C)c1cccc(C(=O)Nc2cccc(S(=O)(=O)NC3=NCCC3)c2)c1 |  | inconclusive: 79.4 µM [inhibitor, single point]
Cc1c(O)ccc2c(CN3CCN(CCO)CC3)cc(=O)oc12 |  | inconclusive: 89.1 µM [inhibitor, single point]
Cc1ccc(S(=O)(=O)ON2C(=O)c3ccccc3C2=O)c(C)c1 | inactive: 12.7% | 
CC(C)CC(C(=O)OCC(=O)Nc1ncc(Cl)cc1Cl)N1C(=O)c2ccccc2C1=O (stereo not given) |  | inconclusive: 100 µM [inhibitor, single point]
CC(=O)C1=C(C)NC(SCc2cccc([N+](=O)[O-])c2)=C(C#N)C1c1ccco1 (stereo not given) |  | active: 39.8 µM
CCOC(=O)c1cc(S(=O)(=O)Nc2ccccc2)[nH]n1 |  | active: 79.4 µM
COc1ccccc1N1CCN(CC(O)COc2ccc(Cl)c(C)c2)CC1 (stereo not given) |  | inconclusive: 20 µM [inhibitor, full curve]
CC(Cl)C(=O)c1c[nH]c2ccccc12 (stereo not given) | inactive: -4.88% | 
Cc1ccc(-n2c(C)cc(C(=O)CSc3nnnn3C)c2C)cc1 |  | active: 50.1 µM
COc1ccc(C(=O)Nc2ccc(Cl)cc2C(=O)N2CCCC(C)C2)cc1OC (stereo not given) | inactive: 9.74% | 
CCCCC1NC(C(=O)O)CS1 (stereo not given) |  | active: 50.1 µM

SMILES | activity change, negative = inhibition | Potency
Cc1ccccc1CNC(=O)Cn1c(=O)c2cccn2c2cccnc21 | inactive: -9.9% | 
O=[N+]([O-])c1ccc(N2CCCCCC2)c([N+](=O)[O-])c1 |  | inconclusive: 44.7 µM [inhibitor, partial curve]
COc1cc(CNCc2ccccn2)ccc1OCc1ccc(Cl)cc1 |  | inconclusive: 70.8 µM [inhibitor, partial curve, poor fit]
c1ccn2c(SCc3ccc4c(c3)OCCO4)nnc2c1 |  | inconclusive: 89.1 µM [inhibitor, single point]
COc1ccc(C2(CNC(=O)c3cc([N+](=O)[O-])cc([N+](=O)[O-])c3)CCCC2)cc1OC |  | inconclusive: 70.8 µM [inhibitor, single point]
CCN(CC)c1ccc(/C=N/N(c2ccccc2)c2ccccc2)c(O)c1 |  | active: 10 µM
CC(=O)c1ccc(NC(=O)CCc2nnc3ccc(NCc4ccco4)nn23)cc1 |  | inconclusive: 89.1 µM [inhibitor, single point]
COCCNC(=O)C(c1ccc(C)o1)N(Cc1ccc(OC)cc1)C(=O)Cn1nnc2ccccc21 (stereo not given) | inactive: -24.5% | 
O=C(NN1C(=O)c2ccccc2NC1c1cccnc1)c1ccc([N+](=O)[O-])cc1 (stereo not given) | inactive: -9.1% | 
N#Cc1c(SCC(=O)Nc2nccs2)sc2c(O)cc(=O)[nH]c12 |  | active: 15.8 µM
Clc1ccc(C(Cn2ccnc2)OCc2c(Cl)cccc2Cl)c(Cl)c1 (stereo not given) |  | active: 31.6 µM
CCn1c(SCC(=O)Nc2cc(C)ccc2F)nnc1-c1ccccc1O | inactive: 2.46% | 
CCN(c1ccc(OC)cc1)S(=O)(=O)c1ccc2[nH]c3c(c2c1)CCCCC3 |  | inconclusive: 25.1 µM [inhibitor, single point]
O=S(=O)(NCCc1nnc2ccc(SCc3ccccc3Cl)nn12)c1ccccc1 |  | inconclusive: 56.2 µM [inhibitor, partial curve, poor fit]
COc1cc2nc(Nc3cccc(F)c3)nc(N)c2cc1OC |  | inconclusive: 70.8 µM [inhibitor, single point]
Cc1cccc2nc(-c3ccccn3)c(Nc3ccccc3)n12 |  | active: 8.91 µM
CC1=C(C#N)C(c2ccccc2)C2=C(N1)c1ccccc1C2=O (stereo not given) |  | active: 31.6 µM
COc1ccc(Cl)cc1Nc1nc(-c2cccnc2)cs1 |  | inconclusive: 25.1 µM [inhibitor, full curve]
CC(=O)Nc1ccc(NC(=O)c2ccccc2C)cc1 | inactive: 3.31% | 
CN(C)c1ccc(CNC(=O)CCCN2C(=O)c3cccnc3Oc3ccc(Cl)cc32)cc1 |  | inconclusive: 50.1 µM [inhibitor, partial curve]
CCCCOC(=O)c1ccc(-n2nnc3c(sc4nc(C)cc(C)c43)c2=O)cc1 | inactive: -1.15% | 
O=C(O)c1cc(-c2cccs2)nn1-c1ccccc1 | inactive: -37.5% | 
COc1cc2c(cc1OC)C(COc1ccc(C(C)C)cc1)NCC2 (stereo not given) |  | inconclusive: 79.4 µM [inhibitor, single point]
Cc1cc(/C=C2/NC(=O)NC2=O)c(C)n1-c1ccc(N2CCOCC2)cc1 |  | inconclusive: 50.1 µM [inhibitor, partial curve]
O=C(CCN1C(=O)/C(=C/C=C/c2ccccc2)SC1=S)Nc1cccnc1 |  | inconclusive: 79.4 µM [inhibitor, single point]

SMILES | activity change, negative = inhibition | Potency
Cc1cn(CCC(=O)Nc2ccccc2N2CCOCC2)c2ccccc12 | inactive: -34.6% | 
CCCCSCCCNC(=O)CS(=O)Cc1nc(-c2cccc(C)c2)oc1C (stereo not given) |  | inconclusive: 89.1 µM [inhibitor, single point]
CCOc1cccc(NCc2cc3c(C(C)(C)C)nn(-c4ccccc4)c3[nH]c2=O)c1 |  | inconclusive: 79.4 µM [inhibitor, single point]
Cn1cc(Br)c(C(=O)N/N=C/c2cccc(OC3CSC3)c2)n1 |  | inconclusive: 70.8 µM [inhibitor, single point]
CCN(CC)S(=O)(=O)c1ccc(N2CCCC2)c(NC(=O)c2ccccc2OC)c1 |  | inconclusive: 31.6 µM [inhibitor, partial curve]
Cc1ccc(Nc2ncccc2C(=O)NCc2cccs2)c(C)c1 |  | inconclusive: 70.8 µM [inhibitor, single point]
CCOC(=O)c1ccc(NC(=O)COc2coc(CN3CCc4ccccc43)cc2=O)cc1 |  | inconclusive: 79.4 µM [inhibitor, single point]
O=C(CCCN1C(=O)/C(=C/c2ccco2)SC1=S)Nc1ccccc1C(=O)O |  | active: 39.8 µM
COc1ccc(S(=O)(=O)Nc2ccc(NC(C)=O)cc2)cc1OC | inactive: -1.87% | 
NC(=O)C1CCN(c2csc3ccc(F)cc3c2=O)CC1 | inactive: -1.68% | 
Cc1ccc(S(=O)(=O)CCC(=O)Nc2nc(-c3ccccn3)cs2)cc1 |  | inconclusive: 89.1 µM [inhibitor, single point]
COc1ccc(N2CCN(C(CNC(=O)c3ccc(OC)c(OC)c3)c3cccnc3)CC2)cc1 (stereo not given) | inactive: -7.34% | 
COC(=O)CCC(=O)OC1(C)C(=O)C2=CN(CC(C)C)C(c3ccc(OC)cc3)=CC2=C(Br)C1=O (stereo not given) |  | active: 39.8 µM
CCc1ccc(C2CC(=O)Nc3c2c(=O)n(C)c2ncnn32)cc1 (stereo not given) | inactive: -16.2% | 
CCOc1ccccc1N1CSC2=C(C#N)C(c3c(OC)ccc4ccccc34)CC(=O)N2C1 (stereo not given) |  | active: 50.1 µM
CC(C)(C)OC(=O)NCC12C=CC(O1)C1C(=O)N(Cc3ccccc3)C(=O)C12 (stereo not given) | inactive: -0.446% | 
Cc1cc(-c2csc(N)n2)c(C)n1-c1ccccc1 |  | active: 44.7 µM
CCCCOc1ccc(C(=O)N/C(=C/C=C/c2ccccc2)C(=O)NCCO)cc1 |  | inconclusive: 89.1 µM [inhibitor, single point]
COc1ccc(OC)c(NC(=O)c2nc(S(=O)(=O)Cc3ccc(F)cc3)ncc2Cl)c1 |  | inconclusive: 20 µM [inhibitor, full curve]
CCCC(=O)Nc1ccc(C(=O)NNC(=O)COc2ccc(Br)c(C)c2)cc1 |  | inconclusive: 100 µM [inhibitor, single point]
COc1ccc(CC(C(=O)Nc2ccc(OC)cc2)c2nn[nH]n2)cc1 (stereo not given) |  | inconclusive: 89.1 µM [inhibitor, single point]
Cc1nnc(NC(=O)c2ccc(S(=O)(=O)N3CCc4ccccc4C3)cc2)o1 |  | active: 79.4 µM
CCCN(CC(=O)Nc1ccccc1C)C(=O)c1ccc(N2CCCCC2)c([N+](=O)[O-])c1 |  | inconclusive: 50.1 µM [inhibitor, partial curve]
Cc1ccc2nc(-c3ccc(NS(C)(=O)=O)cc3)cc(-c3ccccc3)c2c1 |  | inconclusive: 89.1 µM [inhibitor, single point]
O=[N+]([O-])C(=C1Nc2ccccc2N1)/C(Cl)=C(/Cl)Br |  | inconclusive: 56.2 µM [inhibitor, partial curve, poor fit]
